# In the supplement of paper PMC8728848:
# Some of the results follow.
# What was measured:
# Test in all cases: glycan array binding signal (z-score within array); higher = stronger binding
# Conditions in all cases: glycan notation: IUPAC condensed, linker removed
# Fuc(a1-2)Gal = target: Fuc(a1-2)Gal
# Summary of the method: (§1)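 Negative Z-scores can be read as non-binding. The Z-score is calculated within each array and then averaged across arrays of one protein sequence at different concentrations or buffers and across linkers. Arrays, 3228 in all, were curated from the Consortium for Functional Glycomics database and kept only where the protein sequence was available.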
# Fuc(a1-2)Gal(b1-3)GalNAc = target: Fuc(a1-2)Gal(b1-3)GalNAc
# Summary of the method: as §1
# [1] = target: Fuc(a1-2)Gal(b1-3)GalNAc(a1-3)[Fuc(a1-2)]Gal(b1-4)Glc
# Summary of the method: as §1
# [2] = target: Fuc(a1-2)Gal(b1-3)GalNAc(a1-3)[Fuc(a1-2)]Gal(b1-4)GlcNAc
# Summary of the method: as §1
# [3] = target: Fuc(a1-2)Gal(b1-3)GalNAc(b1-3)Gal
# Summary of the method: as §1
# [4] = target: Fuc(a1-2)Gal(b1-3)GalNAc(b1-3)Gal(a1-4)Gal(b1-4)Glc
# Summary of the method: as §1
# [5] = target: Fuc(a1-2)Gal(b1-3)GalNAc(b1-4)[Neu5Ac(a2-3)]Gal(b1-4)Glc
# Summary of the method: as §1
# Fuc(a1-2)Gal(b1-3)GlcNAc = target: Fuc(a1-2)Gal(b1-3)GlcNAc
# Summary of the method: as §1
# [6] = target: Fuc(a1-2)Gal(b1-3)GlcNAc(b1-2)Man(a1-3)[Fuc(a1-2)Gal(b1-3)GlcNAc(b1-2)Man(a1-6)]Man(b1-4)GlcNAc(b1-4)GlcNAc
# Summary of the method: as §1
# [7] = target: Fuc(a1-2)Gal(b1-3)GlcNAc(b1-2)Man(a1-3)[Fuc(a1-2)Gal(b1-3)GlcNAc(b1-2)Man(a1-6)]Man(b1-4)GlcNAc(b1-4)[Fuc(a1-6)]GlcNAc
# Summary of the method: as §1
# [8] = target: Fuc(a1-2)Gal(b1-3)GlcNAc(b1-3)Gal(b1-4)Glc
# Summary of the method: as §1
# [9] = target: Fuc(a1-2)Gal(b1-3)GlcNAc(b1-3)GalNAc
# Summary of the method: as §1
# [10] = target: Fuc(a1-2)Gal(b1-3)GlcNAc(b1-3)[Fuc(a1-2)Gal(b1-3)GlcNAc(b1-6)]GalNAc
# Summary of the method: as §1
# [11] = target: Fuc(a1-2)Gal(b1-3)GlcNAc(b1-3)[Gal(b1-4)GlcNAc(b1-6)]Gal(b1-4)Glc
# Summary of the method: as §1
# [12] = target: Fuc(a1-2)Gal(b1-3)GlcNAc(b1-3)[Neu5Ac(a2-6)Gal(b1-4)GlcNAc(b1-6)]Gal(b1-4)Glc
# Summary of the method: as §1
# [13] = target: Fuc(a1-2)Gal(b1-3)GlcNAc6S
# Summary of the method: as §1
# [14] = target: Fuc(a1-2)Gal(b1-3)[Fuc(a1-4)]GlcNAc
# Summary of the method: as §1
# [15] = target: Fuc(a1-2)Gal(b1-3)[Fuc(a1-4)]GlcNAc(b1-2)Man(a1-3)[Fuc(a1-2)Gal(b1-3)[Fuc(a1-4)]GlcNAc(b1-2)Man(a1-3)]Man(b1-4)GlcNAc(b1-4)GlcNAc
# Summary of the method: as §1
# [16] = target: Fuc(a1-2)Gal(b1-3)[Fuc(a1-4)]GlcNAc(b1-2)Man(a1-3)[Fuc(a1-2)Gal(b1-3)[Fuc(a1-4)]GlcNAc(b1-2)Man(a1-6)]Man(b1-4)GlcNAc(b1-4)[Fuc(a1-6)]GlcNAc(b1-4)[Fuc(a1-6)]GlcNAc
# Summary of the method: as §1
# [17] = target: Fuc(a1-2)Gal(b1-3)[Fuc(a1-4)]GlcNAc(b1-3)[Fuc(a1-3)[Gal(b1-4)]GlcNAc(b1-6)]Gal(b1-4)Glc
# Summary of the method: as §1
# [18] = target: Fuc(a1-2)Gal(b1-3)[Fuc(a1-4)]GlcNAc(b1-3)[Gal(b1-4)GlcNAc(b1-6)]Gal(b1-4)Glc
# Summary of the method: as §1
# [19] = target: Fuc(a1-2)Gal(b1-4)Fuc(a1-3)]GlcNAc(b1-2)Man(a1-3)[Fuc(a1-2)Gal(b1-4)[Fuc(a1-3)]GlcNAc(b1-2)Man(a1-6)]Man(b1-4)GlcNAc(b1-4)GlcNAc
# Summary of the method: as §1
# Fuc(a1-2)Gal(b1-4)Glc = target: Fuc(a1-2)Gal(b1-4)Glc
# Summary of the method: as §1
# Fuc(a1-2)Gal(b1-4)Glc6S = target: Fuc(a1-2)Gal(b1-4)Glc6S
# Summary of the method: as §1
# Fuc(a1-2)Gal(b1-4)GlcNAc = target: Fuc(a1-2)Gal(b1-4)GlcNAc
# Summary of the method: as §1
# [20] = target: Fuc(a1-2)Gal(b1-4)GlcNAc(b1-2)Man
# Summary of the method: as §1
# [21] = target: Fuc(a1-2)Gal(b1-4)GlcNAc(b1-2)Man(a1-3)[Fuc(a1-2)Gal(b1-4)GlcNAc(b1-2)Man(a1-6)]Man(b1-4)GlcNAc(b1-4)GlcNAc
# Summary of the method: as §1
# [22] = target: Fuc(a1-2)Gal(b1-4)GlcNAc(b1-2)Man(a1-3)[Fuc(a1-2)Gal(b1-4)GlcNAc(b1-2)Man(a1-6)]Man(b1-4)GlcNAc(b1-4)[Fuc(a1-6)]GlcNAc
# Summary of the method: as §1
# [23] = target: Fuc(a1-2)Gal(b1-4)GlcNAc(b1-2)[Fuc(a1-2)Gal(b1-4)GlcNAc(b1-4)]Man(a1-3)[Fuc(a1-2)Gal(b1-4)GlcNAc(b1-2)Man(a1-6)]Man(b1-4)GlcNAc(b1-4)GlcNAc
# Summary of the method: as §1
# [24] = target: Fuc(a1-2)Gal(b1-4)GlcNAc(b1-3)Gal(b1-4)GlcNAc
# Summary of the method: as §1
# [25] = target: Fuc(a1-2)Gal(b1-4)GlcNAc(b1-3)Gal(b1-4)GlcNAc(b1-2)Man(a1-3)[Fuc(a1-2)Gal(b1-4)GlcNAc(b1-3)Gal(b1-4)GlcNAc(b1-2)Man(a1-6)]Man(b1-4)GlcNAc(b1-4)GlcNAc
# Summary of the method: as §1
# [26] = target: Fuc(a1-2)Gal(b1-4)GlcNAc(b1-3)Gal(b1-4)GlcNAc(b1-3)Gal(b1-4)GlcNAc
# Summary of the method: as §1
# [27] = target: Fuc(a1-2)Gal(b1-4)GlcNAc(b1-3)GalNAc
# Summary of the method: as §1
# [28] = target: Fuc(a1-2)Gal(b1-4)GlcNAc(b1-3)[Fuc(a1-2)Gal(b1-4)GlcNAc(b1-6)]GalNAc
# Summary of the method: as §1
# [29] = target: Fuc(a1-2)Gal(b1-4)GlcNAc(b1-3)[Fuc(a1-3)[Gal(b1-4)]GlcNAc(b1-6)]Gal(b1-4)Glc
# Summary of the method: as §1
# [30] = target: Fuc(a1-2)Gal(b1-4)GlcNAc(b1-6)GalNAc
# Summary of the method: as §1
# [31] = target: Fuc(a1-2)Gal(b1-4)GlcNAc6S
# Summary of the method: as §1
# [32] = target: Fuc(a1-2)Gal(b1-4)[Fuc(a1-3)]GlcNAc
# Summary of the method: as §1
# [33] = target: Fuc(a1-2)Gal(b1-4)[Fuc(a1-3)]GlcNAc(b1-2)Man(a1-3)[Fuc(a1-2)Gal(b1-4)[Fuc(a1-3)]GlcNAc(b1-2)Man(a1-6)]Man(b1-4)GlcNAc(b1-4)[Fuc(a1-6)]GlcNAc
# Summary of the method: as §1
# [34] = target: Fuc(a1-2)Gal(b1-4)[Fuc(a1-3)]GlcNAc(b1-2)[Fuc(a1-2)Gal(b1-4)[Fuc(a1-3)]GlcNAc(b1-4)]Man(a1-3)[Fuc(a1-2)Gal(b1-4)[Fuc(a1-3)]GlcNAc(b1-2)Man(a1-6)]Man(b1-4)GlcNAc(b1-4)GlcNAc
# Summary of the method: as §1
# [35] = target: Fuc(a1-2)Gal(b1-4)[Fuc(a1-3)]GlcNAc(b1-3)Gal(b1-4)[Fuc(a1-3)]GlcNAc
# Summary of the method: as §1
# [36] = target: Fuc(a1-2)Gal(b1-4)[Fuc(a1-3)]GlcNAc(b1-3)Gal(b1-4)[Fuc(a1-3)]GlcNAc(b1-3)Gal(b1-4)[Fuc(a1-3)]GlcNAc
# Summary of the method: as §1
# [37] = target: Fuc(a1-2)Gal(b1-4)[Fuc(a1-3)]GlcNAc(b1-3)GalNAc
# Summary of the method: as §1
# [38] = target: Fuc(a1-2)Gal(b1-4)[Fuc(a1-3)]GlcNAc(b1-3)[Neu5Ac(a2-6)Gal(b1-4)GlcNAc(b1-6)]Gal(b1-4)Glc
# Summary of the method: as §1
# [39] = target: Fuc(a1-2)Gal3S(b1-4)GlcNAc
# Summary of the method: as §1
binder,measurement,setting,value
"Arath Fbox (Arabidopsis thaliana), NP_178341.1 (protein) EFTWGRKRRVKSESSPFDSFPEDCISYIISFTNPRDACVAATVSKTFESTVKSDIIWEKFLPADYESLIPPSRVFSSKKELYFSLCNDPVLFDDDKKSVWLEKASGKRCLMLSAMNLSIIWGDNPQYWQWIPIPESRFEKVAKLRDVCWFEIRGRTNTRVLSPRTRYSAYIVFKGVDKCYGFQNVAIEAAVGVVGQEPSRRLICFSEAIRRGRRNVVKPKQREDGWMEIELGEFFNDGGIMDNDEIEMSALETKQLNRKCGLIIQGIEIRPAKILAAAAASFLEQKLISEEDLNSAVDHHHHHH",glycan array binding signal (z-score),Fuc(a1-2)Gal,-0.268
same,glycan array binding signal (z-score),Fuc(a1-2)Gal(b1-3)GalNAc,-0.555
same,glycan array binding signal (z-score),[1],-0.513
same,glycan array binding signal (z-score),[2],-0.4
same,glycan array binding signal (z-score),[3],-0.003
same,glycan array binding signal (z-score),[4],-0.544
same,glycan array binding signal (z-score),[5],-0.123
same,glycan array binding signal (z-score),Fuc(a1-2)Gal(b1-3)GlcNAc,-0.233
same,glycan array binding signal (z-score),[6],-0.26
same,glycan array binding signal (z-score),[7],0.222
same,glycan array binding signal (z-score),[8],-0.36
same,glycan array binding signal (z-score),[9],-0.769
same,glycan array binding signal (z-score),[10],-0.498
same,glycan array binding signal (z-score),[11],0.186
same,glycan array binding signal (z-score),[12],-0.599
same,glycan array binding signal (z-score),[13],-0.085
same,glycan array binding signal (z-score),[14],-0.571
same,glycan array binding signal (z-score),[15],0.658
same,glycan array binding signal (z-score),[16],-0.367
same,glycan array binding signal (z-score),[17],-0.711
same,glycan array binding signal (z-score),[18],-0.455
same,glycan array binding signal (z-score),[19],1.04
same,glycan array binding signal (z-score),Fuc(a1-2)Gal(b1-4)Glc,0.071
same,glycan array binding signal (z-score),Fuc(a1-2)Gal(b1-4)Glc6S,-0.052
same,glycan array binding signal (z-score),Fuc(a1-2)Gal(b1-4)GlcNAc,0.005
same,glycan array binding signal (z-score),[20],-0.487
same,glycan array binding signal (z-score),[21],1.45
same,glycan array binding signal (z-score),[22],0.364
same,glycan array binding signal (z-score),[23],0.561
same,glycan array binding signal (z-score),[24],-0.627
same,glycan array binding signal (z-score),[25],1.65
same,glycan array binding signal (z-score),[26],-0.732
same,glycan array binding signal (z-score),[27],0.925
same,glycan array binding signal (z-score),[28],0.463
same,glycan array binding signal (z-score),[29],-0.746
same,glycan array binding signal (z-score),[30],0.226
same,glycan array binding signal (z-score),[31],-0.751
same,glycan array binding signal (z-score),[32],-0.563
same,glycan array binding signal (z-score),[33],-0.138
same,glycan array binding signal (z-score),[34],0.048
same,glycan array binding signal (z-score),[35],-0.68
same,glycan array binding signal (z-score),[36],-0.484
same,glycan array binding signal (z-score),[37],0.864
same,glycan array binding signal (z-score),[38],-0.578
same,glycan array binding signal (z-score),[39],-0.505
